# The supplement of paper PMC11417369
# This is one part of the list.
# Test system: PfHDP1 homeodomain (GST-tagged)
# Assay: gcPBM binding intensity (ln(normalized median fluorescence intensity)); higher = stronger DNA binding
# Summary of the method: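 Binding intensity is defined as the maximum Masliner-normalised natural-log median intensity across replicate spots for either probe orientation. It was measured on an Agilent 4 × 180k array of primer-extended double-stranded 36-bp intergenic genomic probes and negative controls, to which GST-tagged P. falciparum DNA-binding domains made in E. coli were applied for 1 h in 1× PBS with 1% milk, 0.2 mg/ml BSA, 0.5% salmon testes DNA and 0.03% Triton X-100. Detection was by Alexa488 anti-GST antibody and scanning at 488 nm.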
row,Sequence,gcPBM binding intensity (ln)
1,ATAACTTATTTTTAAAGTACATTATTATATATATAT [XGTACX_site1620],8.37
2,ATTGTAATAAATTGTAGTACATGTAAGGTTTTATTT [XGTACX_site1005],6.56
3,ATTACATATGTGAGTTGTACTATAAATATATAATAT [XGTACX_site3718],7.28
4,TCGAACATTAACATAACACACATATAGATTTATATA [CACACA_site7380],6.59
5,AAACTTATGTTTACATGTACAGAACTTTATATTATG [XGTACX_site4843],6.31
6,TATTATATATATAGGTGTACGCATTTGTCCTTTATA [XGTACX_site1385],6.59
7,TTGTATGCTTCCCGACTACATTATGCCATAAATGTA [TGCATGCA_negctrl_site136],6.78
8,TTATTCTTTAACTAAAATTATATATATATATTATAC [CACACA_negctrl_site1597],6.41
9,TACAATTCGTAATACACACACATATATATATATATT [CACACA_site3751],7.16
10,TTTATTATCTTATTCACACACATATATATATATATA [CACACA_site2869],9.3
11,ATATATTTTTACCATACACACATATAACAAATATAT [CACACA_site7706],6.96
12,AGAAAAAAAAAAAAAAAAAAAAAATTGAATATATAT [TGCATGCA_negctrl_site55],5.93
13,GAAGAATAAATATGCACACATGCATATATTTTTACA [CACACA_site3459],10
14,TAAAAAAATTTAACATGTACAAATATTGAAAAGGAC [XGTACX_site7608],7.7
15,ATTAAAAAAGAATATACACACCAAAACTGTTTGTTA [CACACA_site4687],6.4
16,TATATATATATATATACATGCATATATATAATATAT [TGCATGCA_site763],9.32
17,GTAAGTTGTGCATTCACACACATATATATATATATA [CACACA_site3303],9.96
18,TTAAGATCCTAAAAAACACACAATTGTGAATAATAA [CACACA_site3872],6.55
19,TTTTGTTTCTATATAAGATGGAAATATAAACTTGTA [CACACA_negctrl_site82],6.11
20,TGTTTTTATAATATTAGTACATAATATACATAATTC [XGTACX_site2787],6.4
21,AATAAATTAATTTTGGGTACATATATATATATATAT [XGTACX_site3807],9.34
22,AAATATATATAAATGAGTACTTATGGTAACATATAT [XGTACX_site6362],6.49

row,Sequence,gcPBM binding intensity (ln)
1,AAAAAATATTGAAGTACACACATTATGAACTTTTTT [CACACA_site1733],6.09
2,TTCCACATTTTACAGACACACACAATTTATATTACG [CACACA_site8572],6.84
3,ATAAATAATTATAATTGTACACATATATATATATAC [XGTACX_site3998],6.77
4,AGAGCATAATAAAACACACACATACATACCTATATA [CACACA_site6566],8.72
5,TATATATATAAAAATACACACATGAATGAATATATA [CACACA_site419],6.98
6,TCTTTATTATTCGCCACACACATATATATATATATA [CACACA_site3077],9.38
7,TTTTAAAAAAAATAAAAAATAAACAATAATAAATAA [CACACA_negctrl_site721],6.32
8,AAAATATAATATAATGCACACATAAAAAAAAAATCA [CACACA_site7922],10.2
9,TATCTGTAAATGGACACACACATATATATATATATA [CACACA_site5926],9.36
10,TATACATACCCACCCACACACAAAAAAAAAAAAAAA [CACACA_site4632],6.63
11,GGGGGCTTTTATAAAAGTACAAAATGAATAAAAATT [XGTACX_site2393],7.93
12,TATACTCATAAATACACACACATATATATATATATA [CACACA_site5822],9.25
13,AAAAAAAAGGAAATAACACACATGTATATATCTATA [CACACA_site6856],6.15
14,TTCATATAGAATTGTACACACAAAAACGACATTGTG [CACACA_site7061],6.89
15,GGGGACGCGGGTGGGGGTACTCACACTATGCAAAAT [XGTACX_site7745],7.86
16,ATATATATATGTATGTATATATATATATATGTTTGA [GTGCAC_negctrl_site561],8.46
17,GTATCAATAAAAAACAGTACATATATAATATATTTA [XGTACX_site1083],6.24
18,ATATTGTGTTATAAATGTACACAATTTCCTTTCATA [XGTACX_site7481],6.38
19,TTTTTAAAAATATACACACACAGATATTATATATAT [CACACA_site786],6.94
20,ATATATGTTCCTTTTACACACATAATCTTTTTTTTA [CACACA_site2661],7.08
21,AAAATATAATATAATGCACACATAAAAAAAAAAAAA [CACACA_site7989],9.84
22,AAAATATATAAATATACATGCATAATTAATAGTATA [TGCATGCA_site804],6.39

row,Sequence,gcPBM binding intensity (ln)
1,TAATATGAAGATGGCAGTACTCTAGTCAATTTTTAC [XGTACX_site5375],6.12
2,AATTCAAAGAAAAACTGTACGTGTAGCAAACATCCT [XGTACX_site599],6.79
3,TACAAAAGCTATAACATTCACCACATTATAAAAATA [CACACA_negctrl_site1112],6.35
4,TTTAAAAAAAAAAATACACACATAAAAGTTTTCAAA [CACACA_site6471],6.27
5,TTACAAATATTATAATGTACCCATTTTTTTTGCCTT [XGTACX_site6612],6.39
6,TTTTCATTAAGATACTTATAATAGTTTATTAGTAAA [CACACA_negctrl_site586],6.04
7,TGATTAAATCAAGAAAGTACAAAATGAAATATATAA [XGTACX_site4319],6.72
8,ATATATTTTATACATACACACATATATATATTTTTT [CACACA_site3940],6.83
9,AAAATAATTTTATAGTTGCACTATATCGTATACAAT,8.15
10,TAAAGTGTAAAATTCACACACATATAAATAAATATA [CACACA_site6765],6.45
11,ATATATATTTATATATGTACATATTTTTGTGTATTT [XGTACX_site1183],6.48
12,ATATATATATATATATGTACATAATAATTTTATAAA [XGTACX_site5105],9.25
13,AATAATAATAGAAACACACACACATTTTTAATAATA [CACACA_site1217],6.82
14,CTACTTAATATTTGTACACACATATTTAACCTACTA [CACACA_site5725],7.02
15,TTAATTATGTTTTGGTGTACAATAAATTGAATAGAT [XGTACX_site3306],6.68
16,CAAAAATTACCCTTGTGTACACATATATTATATGTA [XGTACX_site1124],7.52
17,ATAAAAAAATCAGACACACACACGTAAACACATACA [CACACA_site5529],6.96
18,ATATCATCTTCTCTATCATTTTTTTTTTTTTTTTTT [CACACA_negctrl_site1220],6.5
19,TGAGATAAATGTGGTAGTACATTTTTTTTATATATA [XGTACX_site1918],6.39
20,TCCATTGTCACCTTTTGTACTTAAATTTTTTCCTCC [XGTACX_site1573],7.07
21,CTTTTTTTTTTTTTTTGTCCGTATGAGGGACCTATA [XGTACX_site8839],5.88
22,AAAAAAAATTCCAGTACACACAATAATACTAAAAAT [CACACA_site2801],6.53

row,Sequence,gcPBM binding intensity (ln)
1,AAAAATTACAAAAATGCATGTACTATTCATATTTTT [TGCATGCA_site918],6.48
2,TAATATTATATTATATGTACATAACAAATTATATTT [XGTACX_site4296],6.85
3,ATGAAAAAATTTAAATGTACATTACATATATTTATT [XGTACX_site2524],6.29
4,ATTATATTAATATATATATATATATATATAATAATA [CACACA_negctrl_site437],6.67
5,TTTTTTTCTCTTTTTATTACAAAAAGGGTTTATATA [TGCATGCA_negctrl_site75],6.14
6,AATAATAAAAAATACACACACATATAAATATATTAC [CACACA_site7597],6.64
7,CATATAAAGATATGAACACACAAAAAGAATATTTCC [CACACA_site6811],6.44
8,TTCCGAACGACCTAAAGTACATGTATTTCAACTTTT [XGTACX_site1220],6.35
9,AGGACACATATATGCAAAAAAAAAAAAAAAAAAAAA [TGCATGCA_negctrl_site427],7
10,TTTTATAAAAAAACTATAAAAATATATAGTACTTAA [CACACA_negctrl_site440],6.21
11,TATGCACACAATATATGTACTTATATATTTTAAAAA [XGTACX_site5482],9.96
12,TAGTGTATGATAATATGTACATACATTTATATAATA [XGTACX_site6330],6.52
13,CATAATATGTGGACTTTACACACTTGTTTTAAAATT [CACACA_site819],6.26
14,ATGCATATAATTATATGTACATATAAGAAATATATA [XGTACX_site517],6.71
15,CATTTATTATGATAAAGTACTTAAATTAATAGATAA [XGTACX_site3566],6.3
16,ATAAAAAACAGTGGCACACATTATGTATCCACCTTT [CACACA_site5958],5.92
17,TTTATTTATTACTAAAGTACTAAATCATATAATTAT [XGTACX_site3654],5.85
18,GTTTAAAGTTGAACAAGTACACATTTATATAAGGCA [XGTACX_site351],6.43
19,TTTTGAAAGTTTTTGTGTCCACATATATTTATATAT [XGTACX_site6563],6.5
20,TGAGATAACAAAAGTTGTACTTTTTTTTTTTTTTTT [XGTACX_site3004],6.44
21,TTTAATAAAAAAATTAAAAATAAAGAAAAAAAAAAA [CACACA_negctrl_site1464],6.3
22,AAATATATATAAAACTCACACATTATCTTATAACCA [CACACA_site5268],6.4
